The source of these data is patent publication US12583836B2 (Anaxis Pharma Pty Ltd, priority 2020, dated 2026).

Some results are limits rather than exact numbers.

In one assay the target is T1, RIP3 (Homo sapiens, UniProt Q9Y572).
T1 construct: purchased DiscoverX (KINOMEscan service); host or cells: E. coli BL21-derived (T7 phage) or HEK293
Briefly: KINOMEscan binding assay, RIP3. The conditions noted are these: equilibrium dissociation constant, class symbols. From the text: The Hill Slope was set to −1.

The target of a further assay is T2, RIP1 (Homo sapiens, UniProt Q13546).
T2 construct: purchased DiscoverX (KINOMEscan service); host or cells: E. coli BL21-derived (T7 phage) or HEK293
T2 sequence (Q13546 1-671): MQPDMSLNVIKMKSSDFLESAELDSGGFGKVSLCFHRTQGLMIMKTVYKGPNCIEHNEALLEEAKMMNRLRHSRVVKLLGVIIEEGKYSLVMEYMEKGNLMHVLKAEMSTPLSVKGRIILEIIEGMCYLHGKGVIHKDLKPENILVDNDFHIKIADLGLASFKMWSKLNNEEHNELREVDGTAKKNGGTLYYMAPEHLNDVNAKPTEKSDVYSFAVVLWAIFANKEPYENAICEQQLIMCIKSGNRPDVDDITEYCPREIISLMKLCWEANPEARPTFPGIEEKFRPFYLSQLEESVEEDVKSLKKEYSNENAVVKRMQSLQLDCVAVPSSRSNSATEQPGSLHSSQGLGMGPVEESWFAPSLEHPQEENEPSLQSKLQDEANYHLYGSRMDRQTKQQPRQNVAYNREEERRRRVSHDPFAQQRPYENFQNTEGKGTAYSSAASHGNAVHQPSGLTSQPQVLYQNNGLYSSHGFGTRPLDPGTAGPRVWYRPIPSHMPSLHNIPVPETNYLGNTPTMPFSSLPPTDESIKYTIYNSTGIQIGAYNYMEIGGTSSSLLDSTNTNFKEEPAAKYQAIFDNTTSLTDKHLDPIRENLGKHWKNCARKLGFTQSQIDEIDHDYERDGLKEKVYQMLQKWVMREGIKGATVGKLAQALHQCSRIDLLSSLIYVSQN
Briefly: KINOMEscan binding assay, RIP1. The conditions noted are these: equilibrium dissociation constant, class symbols.

T1 sequence (Q9Y572 whole entry): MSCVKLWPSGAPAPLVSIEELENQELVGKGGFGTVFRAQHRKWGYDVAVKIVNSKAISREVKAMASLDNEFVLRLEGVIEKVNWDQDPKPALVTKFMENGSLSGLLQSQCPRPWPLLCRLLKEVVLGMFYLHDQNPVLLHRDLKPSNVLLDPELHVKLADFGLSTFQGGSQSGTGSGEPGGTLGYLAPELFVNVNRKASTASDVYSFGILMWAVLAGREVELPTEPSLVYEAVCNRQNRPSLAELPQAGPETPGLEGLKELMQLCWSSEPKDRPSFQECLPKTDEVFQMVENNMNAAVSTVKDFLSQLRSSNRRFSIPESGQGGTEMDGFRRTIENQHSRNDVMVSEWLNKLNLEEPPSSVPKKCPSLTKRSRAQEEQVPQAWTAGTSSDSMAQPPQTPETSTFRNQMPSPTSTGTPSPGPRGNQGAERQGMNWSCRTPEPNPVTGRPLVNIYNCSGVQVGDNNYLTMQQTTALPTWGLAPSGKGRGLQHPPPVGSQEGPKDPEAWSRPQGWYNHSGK

With `C[C@@H](Oc1cc(-c2n[nH]c(Nc3cnccn3)c2C(N)=O)ccc1NS(=O)(=O)C(F)F)c1ncco1` (single isomer, unassigned) [Compound 280], the Kd on RIP3 and at RIP1 was more than 30 µM in each case.
